Source: PubChem BioAssay AID1963576 (National Center for Advancing Translational Sciences (NCATS), 2024)
Hit rate of the full screen: of about 46,000 compounds, about 60 (0.1%) were called active. Not shown: some 3% with an inconclusive outcome. Calls come from the whole dose curve; as a rule, active = well fitted inhibition curve with a large enough effect; inconclusive = small, poorly fitted or top-dose-only effect; inactive = no such curve, though single readings can be large or run the other way. The list shows a part of the results.

Assay: Primary qHTS assay for Inhibitors of ovarian cancer metastasis using an organotypic tumor microenvironment (TME) model.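 For activity change, negative = inhibition: plate controls were DMSO wells for no effect and tomatine positive control wells for full effect.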 Note: nearly all actives have a fitted effect of over 65% in size.
Conditions: SKOV3ip1-GFP adhesion/invasion on 3D omental model, fluorescence; series mostly up to 45.8 µM; activity change, negative = inhibition: at the top concentration
Summary of the method: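 Adhesion/invasion was scored as fixed GFP-labeled SKOV3ip1 cell counts (488/509 nm), normalized to DMSO and tomatine controls. Cancer cells in serum-free medium, with four compound doses (0.36-46 umol/L), sat 2 hr at RT then 16 hr at 37 C on a 48 hr fibroblast/mesothelial/ECM culture.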

Activity change, negative = inhibition, inactive:
O=C(Nc1cccc(OCc2cc(=O)n3ccccc3n2)c1)c1ccccc1Br -2.45%
CCC1CN(C(=O)NCc2ccccc2)c2cc(Cl)ccc2O1 (centres undefined) -7.2%
Cc1ccc(-c2nc3c(c(SCC(=O)N(C)c4ccccc4)n2)Cc2c(CO)cnc(C)c2O3)cc1 0.984%
CCN(CC)c1cc(C)c2cc(NC(=O)c3ccccc3Cl)ccc2n1 -3.98%
CCOC(=O)c1ccc(NC(=O)CSc2ccc(-c3ccccn3)nn2)cc1 -16.7%
CCOC(=O)C(=O)NCC(c1cccnc1)N1CCN(c2ccccc2)CC1 (centres undefined) -4.97%
Cn1cnc2c(=O)oc3ccc(S(=O)(=O)N4CCN(c5cccc(C(F)(F)F)c5)CC4)cc3c21 5.73%
CC(C)(C)OC(=O)N1CCC(c2c(C(=O)Nc3ccc4c(c3)OCCO4)cnn2-c2ccc(F)cc2F)CC1 -8.44%
COc1ccc(OC)c(CCNC(=O)c2cc3cccc4c3n2CC(C)S4)c1 (centres undefined) 62.4%
Cn1c(=O)c2c(nc(CN3CCN(c4ccccc4F)CC3)n2Cc2ccccc2F)n(C)c1=O 21%
Cn1c2ccccc2c2c(C(=O)N3CCN(c4cccc(Cl)c4)CC3)cn(C3CCCCC3)c(=O)c21 -8.23%
COc1ccccc1CCNC(=O)C(=O)NCC(c1ccco1)S(=O)(=O)c1ccc(F)cc1 (centres undefined) 9.71%
O=C1C(=O)N(C2CCN(S(=O)(=O)c3ccccc3)CC2)CCN1Cc1ccccc1 4.7%
O=C(NCc1ccc2c(c1)CCN2C(=O)c1ccncc1)c1ccccc1Cl 4.97%
Cn1c(=O)n(C)c2cc(N3CCOCC3)c(NC(=O)c3ccc(Cl)cc3)cc21 -13.5%
COc1cccc(CNC(=O)CCCn2ncn3c(cc4occc43)c2=O)c1OC -2.46%
CCSc1ncc(Cl)c(C(=O)Nc2ccc(S(=O)(=O)Nc3ncccn3)cc2)n1 -3.13%
Cc1cccc(C(=O)Nc2nc3nc(-c4ccccc4)cc(=O)n3[nH]2)c1 -7.86%
COC(=O)CN1C(=O)CSc2ccc(S(=O)(=O)Nc3cccc(C)c3)cc21 -10.8%
Cn1cc(S(=O)(=O)N2CCCCCC2)cc1C(=O)N1CCN(c2cccc(C(F)(F)F)c2)CC1 -1.99%
Cc1ccn2c(=O)cc(COc3ccc(NC(=O)COc4ccccc4)cc3)nc2c1 -2.4%
Cc1ccc(S(=O)(=O)N2CCN(Cc3cc(Br)ccc3O)CC2)cc1 -8.78%
CCOc1ccc(CCNC(=O)C2CCN(Cc3nc(-c4ccc(OC)c(OC)c4)oc3C)CC2)cc1OCC 3.76%
COc1cc(-c2nc(-c3ccc4c(c3)[nH]c(=O)n4C)no2)cc(OC)c1OC -17.3%
O=C1CSC2(C(=O)N(Cc3ccccc3)c3ccccc32)N1c1cccc(F)c1 (centres undefined) 4.08%
N#Cc1ccccc1NC(=O)C(=O)NCCc1csc(-c2ccc(C(F)(F)F)cc2)n1 -17.3%
Cc1cccc(CCNC(=O)c2ccc3c(c2)nc2n3CCC(C)C2)c1 (centres undefined) -15%
COc1cc2c(cc1OC)C1CC(=O)C(CC(C)C)CN1CC2 (centres undefined) -15.4%
O=S(=O)(c1ccc(Cl)cc1)c1nc(-c2cccc(Br)c2)oc1NCc1ccccc1 -9.73%
COc1ccc(CCn2c(=O)c3cccnc3n(CC(=O)Nc3c(C)cccc3C)c2=O)cc1OC 4.25%
CCc1cccc(C)c1NC(=O)Cn1c(=O)n(-c2ccc(C)cc2)c(=O)c2c1cnn2C 3.03%
COc1ccc(-c2nnc(SCC(=O)Nc3cc(OC)ccc3OC)nc2-c2ccc(OC)cc2)cc1 1.4%
Cc1ccc2nc(COc3ccccc3NC(=O)c3ccccc3C)cc(=O)n2c1 -9.02%
CCC(=O)N1c2ccccc2CC1C(=O)NCc1cccc(OC)c1OC (centres undefined) 3.93%
COc1cccc(-c2ccc(-c3noc(-c4ccccc4Br)n3)c(OC)n2)c1 -6.98%
O=C(c1ccco1)N1CCN(c2nc3c(F)cc(F)cc3s2)CC1 -4.34%
CCOC(=O)C1CCCN(c2nc3c(S(=O)(=O)c4ccc(Br)cc4)nnn3c3ccsc23)C1 (centres undefined) -16.6%
COC(=O)c1c(SC)nc2ccccc2c1OCc1ccc(Br)cc1 4.95%
O=C(/C=C/c1ccco1)Nc1ccc(F)cc1 -4.34%
COc1cccc2c1Oc1ncccc1N(C(=O)CCC(=O)NCCC(C)C)C2 -2.84%
COc1ccc(C(=O)Nc2ccc(-c3nnc4n3CCCCC4)cc2)cc1 -3.18%
CCn1nc(-c2ccccc2)c(-c2ccccc2)c(C(=O)Nc2ccc(S(N)(=O)=O)cc2)c1=O 0.8%
CCN1CCN(C(=O)c2ccc3c(c2)N(Cc2cccc(Cl)c2)C(=O)c2ccccc2S3=O)CC1 (centres undefined) -5.58%
O=S(=O)(c1ccc(Cl)cc1)c1nc(-c2ccccc2Br)oc1NCc1ccccc1 0.518%
Cc1ccc(N(CC(=O)Nc2cccc(Cl)c2C)S(=O)(=O)c2c(C)noc2C)cc1 0.395%
COc1ccc(CNC(=O)CS(=O)Cc2nc(-c3ccc(OC)c(OC)c3)oc2C)cc1 (centres undefined) 8.27%
CCn1c(C)c(C)c2cc(C(=O)NCCCN3CCCCC3C)ccc21 (centres undefined) -1.79%
COc1ccc(-n2cc(C(=O)N(CCN(C)C)Cc3ccccc3)c3ccccc3c2=O)cc1 -5.36%
CCOc1ccc2nc(N3CCN(C(=O)c4ccc(S(=O)(=O)CC)cc4)CC3)sc2c1 -6.49%
CC(C)CCNC(=O)c1ccc(Cn2c(=O)c3cccn3c3cccnc32)cc1 -6.87%
Cc1ccccc1Nc1c(-c2cccc(O)c2)nc2ccc(Br)cn12 1.74%
CCOC(=O)c1nc(Nc2ccc(OC)cc2)c2ccccc2n1 6.53%
O=S(=O)(NCc1ccc(F)cc1)c1ccc2[nH]c3c(c2c1)CCCCC3 7.94%
Cc1ccc(CNC(=O)c2cc(S(=O)(=O)N3CCCC(C)C3)cn2C)cc1 (centres undefined) 39.7%
Cc1sc(C2C(C#N)=C(N)N(c3cccc(Cl)c3)C3=C2C(=O)CCC3)cc1CN1CCOCC1 (centres undefined) -7.74%
Cc1cc2c(n1-c1ccc(C(=O)NCC(C)c3ccccc3)cc1)CCCC2 (centres undefined) -1.76%
Cc1cccc(Nc2nc(Nc3cccc(C)c3)nc(N3CCOCC3)n2)c1 -15.2%
CCOc1ccc(CNC(=O)c2ccc3c(c2)sc2nc(-c4ccc(OC)cc4)cn23)cc1 -5.51%
Cc1ccc(F)cc1NC(=O)CCc1c(C)nn(-c2ccc(N3CCCCC3)nn2)c1C 9.71%
CC(CCO)Nc1nc2c(c(=O)n(C)c(=O)n2C)n1Cc1ccc(Br)cc1 (centres undefined) -20%
COc1ccc(NC(=O)Cn2c(=O)n(-c3cccc(C)c3)c(=O)c3c2c2cc(C)ccc2n3C)cc1OC -28.2%
CCOc1cccc(C(=O)Nc2ccc3oc(-c4ccc(C(C)(C)C)cc4)nc3c2)c1 3.87%
CCN(CCCNC(=O)c1ccc(Sc2ccc(C)cc2)c(NC(C)=O)c1)c1cccc(C)c1 2.11%
CCOC(=O)c1ccc(-c2ccc(/C=C(\C#N)C(=O)Nc3c(C)cccc3Cl)o2)cc1 2.19%
C#CCSc1nc2sc3c(c2c(=O)n1-c1cccc(OC)c1)CCN(C(C)=O)C3 1.77%
CC(=O)c1c(C)oc2c(Cl)cc(NS(=O)(=O)c3cc(C)c(C)cc3C)cc12 4.68%
CCCOc1ccc(-c2nonc2NC(=O)COc2ccc(C)cc2)cc1OCCC -29.9%
COCCn1c(SCC(=O)c2ccc(OC)cc2)nc2cc(C(=O)NC3CCCC3)ccc2c1=O 27.9%
CC1CCN(c2ccc(-c3cccc(NS(=O)(=O)c4ccc(Cl)s4)c3)nn2)CC1 5.84%
CC(C)(C)NC(=O)Cn1cc(S(=O)(=O)Cc2ccc(F)cc2)c2ccccc21 3.68%
CCC(=O)Nc1ccc2nc(SCCOc3cccc(C)c3)sc2c1 -14.1%
Cc1ccc(S(=O)(=O)c2nnn(CC(=O)Nc3ccccc3C)c2N)cc1C 1.8%

outcome, inactive:
CCOC(=O)CC(NC(=O)c1cc2cc(Br)cc(OC)c2oc1=O)c1ccc(OC)cc1 (centres undefined)
COc1cccc(N2CCN(C(=O)C3CCCN(S(=O)(=O)c4ccc5c(c4)oc(=O)n5C)C3)CC2)c1 (centres undefined)
CCC(=O)N1CCc2cc(Br)cc(S(=O)(=O)N3CCCC(C(=O)NCc4ccc(F)cc4)C3)c21 (centres undefined)
CCOc1ccccc1NC(=O)C1CCN(S(=O)(=O)c2ccc3[nH]c(=O)ccc3c2)CC1
CCc1ccc(NC(=O)COC(=O)CCCC2=NS(=O)(=O)c3ccccc3N2)cc1
COc1ccc(OC)c(NC(=O)c2ccc3c(SCC(=O)O)c4c(nc3c2)CCCC4)c1
COc1cc(OC)cc(C(=O)Nc2cc(-c3nc4ccccc4[nH]3)ccc2C)c1
O=c1c2sccc2n(Cc2cc(=O)n3ccccc3n2)c(=O)n1-c1cc(F)ccc1F
Cc1ccccc1CNC(=O)c1nn(-c2ccccc2F)nc1CO
CCN(CC)CCCNc1cc(-c2ccccc2)nc(C)n1
COc1ccc(CCNC(=O)CSc2nc3nc(C)c(Cc4ccc(C)cc4)c(C)n3n2)cc1OC
COc1ccc(Cn2c(=O)[nH]c3cc(C(=O)NCCC(C)C)ccc3c2=O)cc1
COc1cc(C(=O)N(Cc2ccc(F)cc2)Cc2ccco2)cc(OC)c1OC
Cc1ccc(/C=C/C(=O)Nc2nc(-c3cccs3)ns2)cc1
COc1cc(OC)c(NC(=O)CSC2=Nc3ccccc3N=C(c3ccc(F)cc3)C2)cc1Cl
Cc1ccc(-c2nn(-c3cccc([N+](=O)[O-])c3)c3c2cnc2ccc(F)cc23)cc1
Cc1ccc2oc(-c3ccc(C)c(NC(=O)c4ccc5c(c4)OCCO5)c3)nc2c1
COc1ccc(-n2c(=O)c3c(c4cc(OC)ccc4n3C)n(CC(=O)NCC3CCCO3)c2=O)cc1 (centres undefined)
CCc1nn2c(-c3ccco3)ccnc2c1-c1ccc(F)cc1
COc1cc(Cl)c(NC(=O)c2cc(S(=O)(=O)N3CCOCC3)cn2C)c(OC)c1
Cc1ccc(S(=O)(=O)Nc2ccc(-c3ccc(N4CCCCCC4)nn3)cc2)cc1C
CCOC(=O)CNC(c1ccccc1)c1cc(Br)ccc1NC(=O)c1ccc(Cl)cc1 (centres undefined)
